Test results reported in PubChem BioAssay AID1346428 (National Center for Advancing Translational Sciences (NCATS), 2018).
Out of some 48,000 compounds screened, about 1,200 (2.5%) were called active. Roughly 2% stayed inconclusive and do not appear here.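 How the source made its calls: active means activation of at least 60% and not above a set upper limit (about 1 call in 100 departs from these limits); inconclusive means activation of 40% to 60%, or above that upper limit; inactive means activation under 40%.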 Some of the results follow.

These compounds were tested against Probable G-protein coupled receptor 32 (Homo sapiens) (UniProt O75388) (assay: qHTS for Agonists of Human Resolvin D1 Receptor DRV1). Conditions: CHO-K1 GPR32 beta-arrestin PathHunter luminescence, 90 min; at 76.9 µM; active compounds read high; zero percent set by DMSO-only wells.
Chain of UniProt O75388 (O75388 whole entry, looked up, the tested form may be a part): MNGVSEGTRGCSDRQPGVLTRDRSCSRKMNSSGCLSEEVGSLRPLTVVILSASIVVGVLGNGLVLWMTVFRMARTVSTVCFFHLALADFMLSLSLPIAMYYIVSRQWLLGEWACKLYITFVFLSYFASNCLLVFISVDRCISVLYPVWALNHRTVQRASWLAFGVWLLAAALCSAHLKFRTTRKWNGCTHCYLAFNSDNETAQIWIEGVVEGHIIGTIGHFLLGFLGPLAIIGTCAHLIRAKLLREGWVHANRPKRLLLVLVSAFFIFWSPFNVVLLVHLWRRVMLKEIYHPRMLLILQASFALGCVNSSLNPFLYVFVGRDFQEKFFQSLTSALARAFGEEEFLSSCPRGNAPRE
Outline: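 GPR32 activation in stably transfected CHO-K1 cells, detected as beta-arrestin recruitment by enzyme-fragment complementation. Compound exposure: 90 min, 37 °C.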
Further: 0% is about no effect.

SMILES	activation
CC(C)n1cc2c(c1-c1ccccc1Cl)c(=O)n(C)c(=O)n2C	inactive: -10.5%
Cc1ccc(C)c(NC(=O)Cn2c(=O)n(-c3ccccc3C)c(=O)c3c2c2cc(C)ccc2n3C)c1	inactive: -3.81%
Cc1ccc(-n2cc3c(c2-c2ccccc2Br)c(=O)n(C)c(=O)n3C)cc1N	inactive: -33.9%
COc1ccccc1N1CCN(CCCNC(=O)c2nnc(Cc3c(F)cccc3Cl)o2)CC1	inactive: 3.16%
COc1ccccc1-c1nc2c(c(SCC(=O)Nc3ccccc3F)n1)Cc1c(CO)cnc(C)c1O2	inactive: -14.5%
COc1ccc(-c2cc(-c3ccccc3)c(C#N)c(SCC(O)CS(=O)(=O)Cc3ccccc3)n2)cc1 (configuration not stated)	inactive: -2.87%
CCN1CCN(CCCNC(=O)Cn2c(-c3cccs3)cc3ccccc32)CC1	inactive: 2.63%
Cc1ccc2c(=O)cc(C(=O)N(Cc3ccccc3Cl)C3CCS(=O)(=O)C3)oc2c1 (configuration not stated)	inactive: 5.24%
COc1ccccc1C(=O)Nc1c(C(=O)N2CCN(c3ccc(F)cc3)CC2)oc2ccccc12	inactive: 4.87%
CCOc1ccc(CCNC(=O)CS(=O)(=O)Cc2nc(-c3cccc(Cl)c3)oc2C)cc1	inactive: 38.8%
COc1ccc(NC(=O)C2CCCN(C(=O)c3cnn(-c4ccccc4)c3-n3cccc3)C2)cc1 (configuration not stated)	inactive: 3.99%
CC(O)CNC(=O)C(=O)Nc1c2c(nn1-c1ccc(Cl)cc1)CSC2 (configuration not stated)	inactive: -32.4%
COc1ccc(NC(=O)CC2C(=O)N(c3ccccc3)C(=O)N2CCC2=CCCCC2)cc1 (configuration not stated)	inactive: -1.65%
CCOc1cccc(C(=O)Nc2nnc(S(=O)(=O)N(C)c3ccc(C)cc3)s2)c1	active: 63.1%
Cc1ccc2c(c1)c(=O)c(C(=O)c1ccccc1)cn2Cc1ccccc1F	inactive: -19.7%
COc1ccc(S(=O)(=O)N(CC(=O)Nc2ccc(OC)cc2OC)c2ccc(Cl)cc2)cc1	inactive: -3.72%
COc1cc(NC(=O)C2CCN(S(=O)(=O)c3c(C)noc3/C=C/c3cccs3)CC2)cc(OC)c1	inactive: -22.8%
CCN1C(=O)c2ccccc2S(=O)c2ccc(C(=O)NCc3ccc(C)cc3)cc21 (configuration not stated)	inactive: -3.43%
Cc1c(CNC2CCC(C)CC2)c(C(=O)O)c(C)n1Cc1ccccc1F (configuration not stated)	inactive: -0.133%
COc1ccc(-c2nc(SCC(=O)c3ccc(Br)cc3)n[nH]2)cc1	active: 114%
CCOc1ccccc1C1C(C(N)=O)=C(C)Nc2nc(-c3ccccc3Cl)nn21 (configuration not stated)	inactive: -25.1%
Cc1cccc(N2CC(c3nc4ccc(C)cc4[nH]3)CC2=O)c1 (configuration not stated)	inactive: -8.47%
